B1: unnamed (peptide)
chain: APLPAQAVF
B2: unnamed (peptide)
chain: VPRGSTLPLL
B3: unnamed (peptide)
chain: FPQVGRTAL
B4: unnamed (peptide)
chain: IPAKVVREVL
B5: unnamed (peptide)
chain: IPKSAIRVI
B6: unnamed (peptide)
chain: YPTISLHAL
B7: unnamed (peptide)
chain: SPGWVRLAL
B8: unnamed (peptide)
chain: LPKNNPPTI
B9: unnamed (peptide)
chain: HPREPALGP
B10: unnamed (peptide)
chain: LPDGRIIKV
B11: unnamed (peptide)
chain: RPVHPALPF
B12: unnamed (peptide)
chain: EPRFVLRAL
B13: unnamed (peptide)
chain: LPHVPLGVI
B14: unnamed (peptide)
chain: TPFGGRLLVL
B15: unnamed (peptide)
chain: IPDASKLQFIL
B16: unnamed (peptide)
chain: APLGGRQGF
B17: unnamed (peptide)
chain: QPMPLKASL
B18: unnamed (peptide)
chain: APYRDLPASL
B19: unnamed (peptide)
chain: TPADIRSFL
B20: unnamed (peptide)
chain: VPADLRISI
B21: unnamed (peptide)
chain: APKNVTSMI
B22: unnamed (peptide)
chain: HPSDRPLML
B23: unnamed (peptide)
chain: FPRFGGSL
B24: unnamed (peptide)
chain: LPDFERESL
B25: unnamed (peptide)
chain: LPALPTQAL
B26: unnamed (peptide)
chain: HPREPLPPIQ
B27: unnamed (peptide)
chain: FPRFGGSLAL
B28: unnamed (peptide)
chain: HPAAFPLPV
B29: unnamed (peptide)
chain: KPRDVSSVELL
B30: unnamed (peptide)
chain: QPRGPLGLTDL
B31: unnamed (peptide)
chain: GPRPGSPSALL
B32: unnamed (peptide)
chain: APASPFRQL
B33: unnamed (peptide)
chain: RPNGVITGL
B34: unnamed (peptide)
chain: HAAAYRNAL
B35: unnamed (peptide)
chain: IPRGPASQF
B36: unnamed (peptide)
chain: APRSVAVSSI

Over roughly 1,400 sequences, “thermal melting temperature (Tm) of peptide-HLA complex” has its median near 60; the lowest 2% begin near 45. Some of the results follow.
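Further: cell lysates heated 10 min at 37–73 °C, remaining pHLA pulled down with pan-class I antibody, peptides quantified by DIA-MS versus 37 °C, Tm where half the complex is lost.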

The assay concerns the target HLA-B*07:02. Briefly: thermal melting temperature (Tm) of peptide-HLA complex; higher = more thermostable pHLA complex. The conditions noted are these: C1R-B*07:02.
B1 displayed a thermal melting temperature of 63.2 °C. B2 registered a thermal melting temperature of 62.7 °C. In the case of B3 it was 62.1 °C; in that of B4, 52.6 °C; in that of B5, 60.1 °C.

In turn, B6 had a thermal melting temperature of 59.8 °C. In turn, B7 returned a thermal melting temperature of 63 °C.

With B8, the thermal melting temperature came to 55.5 °C. As for B9, the figure is 55.3 °C; as for B10, 58.9 °C. For B11, the thermal melting temperature was 61.9 °C. As for B12, the figure is 59.4 °C. Sequence B13 displayed a thermal melting temperature of 62.2 °C. For B14, the thermal melting temperature worked out at 62.5 °C. B15 registered a thermal melting temperature of 62.2 °C. In turn, B16 came in with a thermal melting temperature of 60.2 °C. The sequence B17 yielded a thermal melting temperature of 60.7 °C. Consider B18, for which the thermal melting temperature was determined as 63.5 °C.

B19: the thermal melting temperature was 61.8 °C.

The sequence B20 yielded a thermal melting temperature of 62.9 °C. For B21, the thermal melting temperature is 61.2 °C.

Turning to B22, the thermal melting temperature was 56.1 °C. As for B23, the figure is 62.8 °C; as for B24, 61.7 °C. For B25, the thermal melting temperature worked out at 64.4 °C. B26 registered a thermal melting temperature of 51.3 °C. The sequence B27 registered a thermal melting temperature of 57.6 °C. As to B28, the thermal melting temperature was 57.7 °C. Regarding B29, the thermal melting temperature came out at 60.7 °C.

B30 gave a thermal melting temperature of 50.4 °C. With B31, the thermal melting temperature came out at 61.4 °C. B32 registered a thermal melting temperature of 59.8 °C. The sequence B33 displayed a thermal melting temperature of 60.1 °C. The sequence B34 showed a thermal melting temperature of 58.9 °C. Regarding B35, the thermal melting temperature worked out at 56.9 °C. For B36, the thermal melting temperature is 59.4 °C.
